Screen size: about 350,000 compounds; about 9,900 (2.8%) were called active. Inconclusive means that the source gave no clear call. Such entries were picked first, then a sample of the others. Calls follow the shape of the dose curve; as a rule, active = well fitted activation curve with a large enough effect; inconclusive = small, poorly fitted or top-dose-only effect; inactive = no such curve, though single readings can be large or run the other way. Potencies of inconclusive entries are left out as doubtful fits.
assay: A quantitative high throughput screen for small molecules that induce DNA re-replication in MCF 10a normal breast cells.; also: nearly all actives have a fitted effect of over 50% in size; as to activity, positive = re-replication: % of control where 0% means no effect; settings: MCF 10A DNA re-replication, Hoechst nuclear intensity, 48 h; activity, positive = re-replication: at 46.1 µM (top of the series)
Potency is read from the fitted curve at half-maximal effect; tags tell the direction and shape of the fitted curve.

Structure (SMILES) | Potency | activity, positive = re-replication
CCOc1ccc(S(=O)(=O)NNC(=S)Nc2ccc(Br)cc2)cc1 | inconclusive [activator, single point] | –
Cc1cc(C)cc(C(=O)N2CC(=O)Nc3ccccc32)c1 | inconclusive [activator, full curve, poor fit] | –
Cc1cccc(-n2c(SCC(=O)Nc3ccc4c(c3)OCO4)nnc2-c2ccoc2C)c1 | inconclusive [activator, single point] | –
Cc1ccc(-n2c(C(C)C)nc3oc4ccccc4c(=O)c3c2=O)cc1 | – | inactive: -0.312%
O=C(c1cc2ccccc2oc1=O)N(c1ccccc1)C1C=CS(=O)(=O)C1 (centres undefined) | – | inactive: 4.94%
CN1CCC(=C2c3ccccc3Sc3ccccc32)CC1 | active: 26.6 µM | –
COc1ccc(C2=CN(Cc3ccccc3)CCC2=O)cc1 | inconclusive [activator, full curve] | –
Cc1ccc(S(=O)(=O)Oc2ccc3ccc(O)cc3c2)cc1 | active: 1.03 µM | –
C/C(CC(=O)Nc1ccc(N(C)C)cc1)=N\NC(=O)c1ccc(Cl)cc1Cl | inconclusive [activator, single point] | –
CCOC(=O)[C@@H]1[C@H]2COc3ccc(Br)cc3[C@@H]2N2C(=O)N(c3cccc(Cl)c3)C(=O)[C@]12C | inconclusive [activator, full curve, poor fit] | –
COc1ccc(C2=NOC(C(=O)Nc3cc(Br)ccc3O)C2)cc1OC (centres undefined) | inconclusive [activator, single point] | –
COc1ccc(C(C)(C)C)cc1NC(=O)CCn1[nH]c(=O)ccc1=O | inconclusive [activator, single point] | –
COc1cc(/C=N/NC(=O)c2cn(-c3cccc(C)n3)cn2)ccc1O | – | inactive: -14.6%
Cc1[nH]nc(-c2ccc(OCc3cnn(-c4ccccc4)c3)cc2O)c1Oc1ccc(F)cc1 | inconclusive [activator, single point] | –
c1ccc2c(c1)NC(c1ccncc1)n1c-2nc2ccccc21 (centres undefined) | inconclusive [activator, single point] | –
O=Cc1c[nH]c2ccc(S(=O)(=O)N3CCOCC3)cc12 | inconclusive [activator, single point] | –
C=CCc1c(Cl)nc(C)nc1NCc1ccccc1 | inconclusive [activator, partial curve, poor fit] | –
Cc1ccc(/C=C/C(=O)NCCc2c[nH]c3ccccc23)o1 | – | inactive: 1.61%
COc1cc(OC)c(-c2oc3ccccc3c(=O)c2O)c(OC)c1 | inconclusive [activator, partial curve] | –
CC1CCCCC1NC(=S)Nc1cccc(S(=O)(=O)N(C)C)c1 (centres undefined) | – | inactive: -4.05%
Cc1ccc(-c2ccc(/C=N/NC(=O)CN3CCOCC3)o2)cc1[N+](=O)[O-] | inconclusive [activator, partial curve, poor fit] | –
Cc1cccc(C2=NN(c3ccc(Br)cc3)[C@@H](C(=O)N3CCOC3=O)[C@@H]2c2ccccc2)c1 | active: 1.46 µM | –
CN1CCN(C(=O)c2cc(Oc3c(F)c(F)c(F)c(F)c3F)cc(C(=O)N3CCN(C)CC3)c2)CC1 | inconclusive [activator, single point] | –

Structure (SMILES) | Potency | activity, positive = re-replication
O=C(Nc1nc2ccccc2[nH]1)C1CC1 | active: 18.4 µM | –
COc1ccc(Cn2c(N)c(C#N)c3nc4ccccc4nc32)cc1OC | inconclusive [activator, partial curve, poor fit] | –
COc1cccc(C(=O)COc2ccc(NC(=O)c3ccccc3)cc2)c1 | inconclusive [activator, partial curve, poor fit] | –
CSc1ccccc1-c1nnc(NC(=O)Cc2ccccc2)o1 | – | inactive: -0.444%
Cc1csc(NC(=O)CSc2nc(=O)[nH]c3c2CCCC3)n1 | – | inactive: -0.886%
COc1ccc(C2CC(c3ccccc3O)=NN2c2ccccc2)cc1 (centres undefined) | active: 16.4 µM | –
Nc1ccc(S(=O)(=O)c2ccc(N)nc2)cc1 | – | inactive: -24%
COc1cc2c(C)nc(C)c(C#N)c2cc1OC | – | inactive: 13.3% [at 9.22 µM]
Cc1ccc(S(=O)(=O)N2Cc3ccccc3CC2C(=O)Nc2ccc3c(c2)OCO3)cc1 (centres undefined) | inconclusive [activator, partial curve, poor fit] | –
Cc1ccc(CNC(=O)c2nnc(Cc3ccc(Cl)cc3)o2)cc1 | inconclusive [activator, single point] | –
CCCOc1ccc(N)cc1N | inconclusive [activator, single point] | –
COc1ccc(-n2cnc(N)c2C(=O)c2cccc([N+](=O)[O-])c2)cc1 | inconclusive [activator, single point] | –
Cc1ccc(NC(=O)Cc2ccc(-c3ccccc3)cc2)nc1 | inconclusive [activator, partial curve, poor fit] | –
Cc1ccc2c(c1)C1C=CCC1C(C(=O)NCCCN1CCOCC1)N2 (centres undefined) | inconclusive [activator, full curve, poor fit] | –
O=C(CNC(=O)c1ccco1)N/N=C/c1cc(Br)ccc1O | inconclusive [activator, partial curve] | –
Cc1ccc(NC(=O)CNc2ccc(N3CCOCC3)cc2)cc1S(=O)(=O)N(C)C | inconclusive [activator, partial curve, poor fit] | –
CCCc1cc(=O)c2c(O)ccc(OC)c2o1 | – | inactive: -5.3%
COc1ccccc1NS(=O)(=O)c1cc(C(=O)NCC(c2ccco2)N2CCCCC2)ccc1C (centres undefined) | inconclusive [activator, single point] | –
CC(=O)c1cc(C#N)c(SCc2ccccn2)nc1C | inconclusive [activator, single point] | –
COc1cccc2cc(C(=O)C3=C(O)C(=O)N(CCN(C)C)C3c3ccc(F)cc3)oc12 (centres undefined) | active: 5.8 µM | –
Oc1nc(Nc2ccc(Cl)cc2Cl)sc1/C=C1\C=Nc2ccccc21 | inconclusive [activator, partial curve] | –
NCCCC[C@@H]1NC(=O)[C@H](CCC(=O)O)NC(=O)c2cc([N+](=O)[O-])cc(I)c2OCC[C@@H](C(N)=O)NC1=O | – | inactive: -0.104%
CCOc1nc(-c2ccccc2)ccc1-c1noc(COc2ccccc2)n1 | inconclusive [activator, partial curve, poor fit] | –

Structure (SMILES) | Potency | activity, positive = re-replication
O=C(N/N=C/c1ccc(N2CCOCC2)cc1)C1COc2ccccc2O1 (centres undefined) | inconclusive [activator, single point] | –
NC(=O)c1ccc(/C(N)=N/S(=O)(=O)c2cc(C(F)(F)F)cc(C(F)(F)F)c2)cc1 | inconclusive [activator, single point] | –
Cc1cccc(NC(=O)c2sc3nc(N)c(C#N)cc3c2N)c1 | inconclusive [activator, single point] | –
Cc1nn(CC#N)c(=O)n1-c1ccccc1F | – | inactive: 0.298%
CC(CCc1ccccc1)NC(=O)C1CCN(S(=O)(=O)N2CCOCC2)CC1 (centres undefined) | inconclusive [activator, single point] | –
Cc1sc(NC(=O)c2ccco2)c(CN2CCN(Cc3ccccc3)CC2)c1C | active: 23.1 µM | –
Cc1cc(S(=O)(=O)N2CCOCC2)ccc1OCC(=O)NCc1ccccn1 | – | inactive: -2.21%
O=C(CNC(=O)c1ccc(S(=O)(=O)N2CCCC2)cc1)N/N=C/c1ccc(Cl)cc1Cl | inconclusive [activator, partial curve, poor fit] | –
O=C(Nc1cc(-c2ccccc2)[nH]n1)c1ccccc1F | – | inactive: 1.75%
COc1ccc(S(=O)(=O)N2CCCCCC2)cc1NC(=O)CN1C(=O)CNC1=O | – | inactive: -1.2%
COc1cccc(NS(=O)(=O)c2ccc(C)c(C(=O)N3CCCCC3)c2)c1 | – | inactive: 4.83%
COc1ccc2cc(-c3cc(C(=O)O)c4ccccc4n3)ccc2c1 | – | inactive: 24.9%
Cc1cc(C(=O)Nc2ccc(Cl)cc2)c(C)n1-c1ccccc1 | inconclusive [activator, single point] | –
CC(=O)c1cccc(S(=O)(=O)N2CCC(C(=O)O)(c3ccccc3)CC2)c1 | inconclusive [activator, single point] | –
O=C(COc1ccc(-c2nnc(N3CCCCC3)c3ccccc23)cc1)N1CCCCC1 | inconclusive [activator, partial curve, poor fit] | –
Nc1ccc2c(c1)OC1(CCCC1)O2 | inconclusive [activator, partial curve, poor fit] | –
CCCCCCCCOC(=O)CCc1c(C)[nH]c(=S)[nH]c1=O | inconclusive [activator, partial curve, poor fit] | –
O=C(Cn1cc(COc2ccc(C(=O)c3ccccc3)cc2)nn1)c1ccc(O)cc1 | inconclusive [activator, partial curve] | –
C/C(=N\NC1=NCCN1)c1ccccc1 | – | inactive: -1.38%
N/C(=N\OS(=O)(=O)c1ccccc1)c1ccccn1 | inconclusive [activator, single point] | –
COc1cc(/C=C2/SC(=S)NC2=O)ccc1OS(=O)(=O)c1ccc(C)cc1 | inconclusive [activator, single point] | –
COc1ccc(C(=O)NC2CCC(O)CC2)cc1S(=O)(=O)NCc1ccc(Cl)cc1 (centres undefined) | inconclusive [activator, partial curve, poor fit] | –
CC(=O)/C(=N/Nc1ccc(C)cc1)Sc1nnc(CCc2ccccc2)n1-c1ccccc1 | inconclusive [activator, single point] | –

— PubChem BioAssay AID624296 (National Center for Advancing Translational Sciences (NCATS), 2012)
